The RNAGym collection of RNA variant scans (doi:10.7554/elife.90254)
The source gives no read counts; variants with many changes may rest on few reads.

B1: LINE1-mini (parent)
chain: GGCAGAGCUCAACACAGCGUGGCAAAGUGGCUGUGGCUAGACUGCC

Variants of: B1
Experiment: self-cleavage, relative activity (ratio to wild type); higher = more cleavage; in vitro, sequencing; the parent is a self-cleaving ribozyme

Row | Variant | self-cleavage
1 | G5A G22A A26G G29C U32C | 0.04
2 | G5A C13A U38G A39G | 0.03
3 | A4U G19C C46U | 0.04
4 | G5C A11U A24U | 0.02
5 | A4U G36A A41G C45U | 0.28
6 | G5A C23A C37U | 0.05
7 | A4U G5U C15A A25C | 0.03
8 | A4U G5C A16U G33U C45G | 0.09
9 | G5A A16G A25G C31A | 0.02
10 | G5A U34G C45A | 0.04
11 | G5A G19C C46A | 0.27
12 | G5A A12C G17A C31U | 0.01
13 | G5C A11U A26U G29U G30C C46A | 0.01
14 | G5A C31A C45G | 0.03
15 | G5A A12U C13U C15A C23U A24U G36U | 0.02
16 | G5C A12G U20C G22A | 0
17 | G5A A14G U38C | 0.14
18 | A4U G17C A41C | 0.01
19 | A4U U9G A12G G44A | 0.01
20 | G5A A14U G17C | 0.11
21 | G5A C8U C18U U32C | 0.05
22 | G5A A6C U9C G35C A41C | 0.03
23 | G5A C8G G35U | 0.15
24 | G5A C31U G36C U43C | 0.01

Row | Variant | self-cleavage
25 | G5A A11G A14C C37G | 0.03
26 | G5A U9A C18A G21A A26G U38G | 0.18
27 | G5C A11U A16G | 0.02
28 | G5A A6U C31G U43C G44A | 0.02
29 | G5A C23A G27U G30A U34C | 0.05
30 | G5C A11C G36C | 0.01
31 | A4U G19C G29A G40A C46A | 0.04
32 | G5A G27U U28A G33C | 0.04
33 | G5A U9A C15U C45A | 0.16
34 | G5C A12C C13A A14U G29C | 0.02
35 | G5A C13G G36C | 0
36 | G5A A25G G27U G44U | 0.05
37 | G5A G27A G44A C46G | 0.04
38 | G5A C18U G19U U20C G21U | 0.1
39 | G5A G19U C31A | 0.08
40 | A4U G7A A12G G17C A24C A39C | 0.01
41 | G5A C15G A16G C23A C31G | 0.03
42 | G5C A6G C8G C13A A16U A39U G44U | 0.02
43 | G5C A6C A16U G40C | 0.07
44 | G5A C10U A11G A12C A26U | 0.04
45 | A4U G17A A26G G30C A39U C45G | 0.01
46 | A4U U20C G30A C42A | 0
47 | A4U G36U G40U | 0.11
48 | A4U G7U C18A U34G G35U G36A | 0.03

Row | Variant | self-cleavage
49 | A4U G7U G44C | 0.14
50 | G5A A6U U20C G29U | 0.05
51 | A4U U20G G21A G22C C23A A25U C37G C46A | 0
52 | G5A C15G G27A U32G | 0.02
53 | A4U G7C G19U | 0.07
54 | G5A C18U U43A | 0.17
55 | G5A G36C C42A | 0.12
56 | A4U G27A U28A | 0.06
57 | A4U G5U U9G A14G C45G | 0.11
58 | G5A C8A U20C G22C | 0.15
59 | G5A G19U C42A | 0.04
60 | G5A C10U G35U G40U | 0.13
61 | A4U G5C G17U G30U G40A | 0.04
62 | G5A A26G G44A | 0.1
63 | A4U G17C C18A G27A | 0.02
64 | G5A A14G A25U G27U G33A U34C | 0.13
65 | G5A C31A C37U | 0.1
66 | G5C A12C A41G | 0.02
67 | G5A A14G G36U A41U | 0.11
68 | G5C A6C C8G | 0.06
69 | G5A C8G C13A A25C U34G | 0.04
70 | G5A C18G A25C G44U C45U | 0.01
71 | G5A G29A C45G | 0.08
72 | A4U G27U C42A | 0.03

Row | Variant | self-cleavage
73 | A4U G21A A26G C46A | 0.16
74 | G5A C8G A14U | 0.13
75 | A4U G21U U34C | 0.04
76 | G5C A11U G36U C45G | 0.02
77 | A4U G36C C45G | 0.11
78 | G5A G36C C37G | 0.83
79 | G5A C8A C23G G30C G36A | 0.14
80 | G5A C8U A12C A41U C42U | 0.01
81 | G5A U9G G29U | 0.34
82 | G5A C10U A16U U43C | 0.07
83 | G5A G19A G44U | 0.03
84 | G5A C15G A24C G30A C31U U32A | 0.01
85 | G5A C13U U28C U38A | 0.01
86 | G5A G40U A41C C42A | 0.2
87 | G5A A12C C18A | 0.01
88 | A4U U20G G27A G30C | 0.03
89 | G5A G21C C23A C37A | 0.01
90 | G5A U34C A39G | 0.05
91 | A4U G21A A26C U38C | 0.1
92 | A4U G5C U9A G30C C31G G44C | 0.02
93 | A4U G17A U20C G33C C42G | 0
94 | A4U U9G G19U G21U A24G G40C | 0.35
95 | G5A A12U U34G A41C | 0
96 | A4U G19U U28A U38C | 0.03

Row | Variant | self-cleavage
97 | G5C A11G A12C | 0.03
98 | G5C A11G G17C G35C | 0.01
99 | G5A A6C C18U | 0.82
100 | G5A U34A G35A C37A A41C | 0.01
101 | G5A U9A C10A C13G U34C G36A | 0.02
102 | G5C A6U A26U | 0.06
103 | A4U G7A U9G A16U | 0.03
104 | G5A U9G C23U G33A G40A | 0.13
105 | G5A G33C U34C A41G | 0.03
106 | G5A C10A C13U C18U U34C G44U | 0.1
107 | G5A A14C A24U G35A G44A | 0.04
108 | A4U G22U G33A | 0.1
109 | G5A U28G U43A | 0.11
110 | G5A C8G C31A U43C | 0.17
111 | G5C A6C C18A | 0.04
112 | G5A C15U C23G G29A U38G U43C | 0
113 | G5C A11G C45G | 0
114 | G5A A14C G17C G21C C45U C46G | 0.03
115 | G5C A11C U34G C42A | 0.01
116 | A4U G17A G35C U38A C46U | 0.02
117 | A4U G29U A41U C42U | 0.03
118 | G5A C10A G17U | 0
119 | G5A G36A C45A | 0.23
120 | A4U U9A C37A | 0.21

Row | Variant | self-cleavage
121 | G5A C8G G19A | 0
122 | G5A C13U A24U G40A | 0.05
123 | G5C A6U G21C G35A A39G | 0.06
124 | G5A G7A C10A A12U | 0.01
125 | G5A C8A A16U U38C | 0.15
126 | G5A C15U G22U U38G A41G | 0.02
127 | A4U U38A G44C | 0.09
128 | G5A U9A G44C | 0.08
129 | A4U G7U A12C A14G C15A G33U U43C | 0.07
130 | G5A G29A U43A | 0.07
131 | G5A A11C A16G A25G | 0.02
132 | A4U G7C G19U U20A G29U U32G C45G | 0.04
133 | G5A C10G A25C U32C | 0.04
134 | G5A A16G G22U | 0.03
135 | G5A U20C G35A G40C | 0.09
136 | A4U G5U G22C C31A U32C C45A C46A | 0.12
137 | A4U U9A C23U | 0.07
138 | G5A C13A C15A C31A C42U | 0.06
139 | G5A U20C U38C | 0.01
140 | A4U U20A C45A | 0.05
141 | A4U G35U C45A | 0.06
142 | A4U G5A U28G G40A | 0.02
143 | G5A A14U G30U | 0.06
144 | A4U G21A G22C C23G U34G C45G | 0.02

Row | Variant | self-cleavage
145 | G5A G21C C37G C45U | 0.04
146 | A4U G19C G27U | 0.02
147 | A4U U9G C18A G30A G35A U43C | 0.02
148 | G5A C8U G35C | 0.13
149 | G5C A6U G7C C13U G21U | 0.29
150 | G5C A6U G33A C45G | 0.02
151 | G5A A12U A14U G29C C46A | 0.03
152 | G5A U9G C10G G27C | 0.04
153 | G5A G7C G29U C31G G36U A39C | 0.01
154 | G5A G21U C31G | 0.12
155 | G5A U9G A11C A41U | 0.01
156 | G5A A14G A26U G40A C46U | 0.11
157 | G5A A12G G44U | 0.02
158 | G5A G7C U34A C45G | 0.05
159 | A4U G7C G22U G36C | 0.12
160 | A4U G5C G7C C45A | 0.1
161 | G5A G33A G36U C37U | 0.07
162 | G5A C10A C15A | 0.04
163 | G5A G7C G40C | 0.03
164 | G5A G29U C37U U43G | 0
165 | G5A A11G G44U | 0.03
166 | G5A U20A C23A | 0.03
167 | G5A A14C G30U C45U | 1.96
